Data published in the supplement of paper PMC11417369.
± gives the standard deviation of the averaged measurements. The list shows a part of the results.

Test system: PfAP2-EXP AP2 domain (GST-tagged)
Experiment: gcPBM binding intensity (ln(normalized median fluorescence intensity)); higher = stronger DNA binding
Summary of the method: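 After 1 h on an Agilent 4 × 180k array of primer-extended double-stranded 36-bp intergenic genomic probes and negative controls, bound GST-tagged P. falciparum DNA-binding domains were detected with Alexa488 anti-GST antibody and scanned at 488 nm. The domains had been expressed in E. coli, and binding took place in 1× PBS with 1% milk, 0.2 mg/ml BSA, 0.5% salmon testes DNA and 0.03% Triton X-100. Binding intensity is the highest Masliner-normalised natural-log median intensity across replicate spots of either probe orientation.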

Question: With “GTGCATATGTAGATATGTACATATTTATTTATTATT [XGTACX_site7343]” as the sequence, how does the “gcPBM binding intensity (ln)” value read?
Answer: 8.38 ± 0.16

Question: How did the “gcPBM binding intensity (ln)” value turn out when “AAAAATAAATAAAGTGGTACATAAAAAAGAGAAATT [XGTACX_site874]” was run?
Answer: 9.04 ± 0.43

Question: Which “gcPBM binding intensity (ln)” value does the source give for “GCGGCGGTATCATGCACACGTATATATTGTAACAGT [CACACA_site4958]” here?
Answer: 8.8 ± 0.4

Question: Which “gcPBM binding intensity (ln)” value does the source give for “TCATTGAAAAAAATGTGTACTCATCAAGTATATATT [XGTACX_site6430]” here?
Answer: 8.55 ± 0.3

Question: With “TTTACAGATACATTCACACATAAATTCATGTATAAT [CACACA_site5387]” as the sequence, how does the “gcPBM binding intensity (ln)” value read?
Answer: 8.4 ± 0.31

Question: With “ATTGTTATGAGAACAGCACACAAGCTACATCATATA [CACACA_site8192]” as the sequence, how does the “gcPBM binding intensity (ln)” value read?
Answer: 8.42 ± 0.34

Question: How did the “gcPBM binding intensity (ln)” value turn out when “ATATATAATTTTTGTTGTACATTATAAAAATAATTA [XGTACX_site2738]” was run?
Answer: 8.41 ± 0.31

Question: “ACCGAAGGAATTTATAGTACACATCATAAATAAATT [XGTACX_site4100]” was tested. Which “gcPBM binding intensity (ln)” value did it give?
Answer: 8.54 ± 0.24

Question: For “AAAAATTTTTTTTCATTTGTTTTTATTCCGTAAAAA [CACACA_negctrl_site1217]”, which “gcPBM binding intensity (ln)” value is on record?
Answer: 8.48 ± 0.46

Question: With “AATATAAAAAAAAAATGTACATATTATATATATATA [XGTACX_site5113]” as the sequence, how does the “gcPBM binding intensity (ln)” value read?
Answer: 9.74 ± 0.45

Question: “AGTTTGATTTTTTCTTATAATATATTATTATATATT [CACACA_negctrl_site376]” was tested. Which “gcPBM binding intensity (ln)” value did it give?
Answer: 8.73 ± 0.45

Question: With “TATAATATAAAATAATGTACTTTGAAATATGACATA [XGTACX_site3579]” as the sequence, how does the “gcPBM binding intensity (ln)” value read?
Answer: 8.32 ± 0.3

Question: How did the “gcPBM binding intensity (ln)” value turn out when “TTTTTATTAATAGATATAAATATATAATATGAATGT [TGCATGCA_negctrl_site309]” was run?
Answer: 8.23 ± 0.54

Question: With “CCATATAATATGAACAGTACACACAAAATAAATTCG [XGTACX_site7590]” as the sequence, how does the “gcPBM binding intensity (ln)” value read?
Answer: 8.86 ± 0.32

Question: With “AAATATTATAGCACCACACACTTATTTTATATATAT [CACACA_site5281]” as the sequence, how does the “gcPBM binding intensity (ln)” value read?
Answer: 8.89 ± 0.14

Question: Which “gcPBM binding intensity (ln)” value does the source give for “GAAAATTTAATATAGAACGAAAGCATACACATATAT [GTGCAC_negctrl_site424]” here?
Answer: 8.85 ± 0.68

Question: “ATATATATATATATTTGTACAGATTTATATTATAAT [XGTACX_site7612]” was tested. Which “gcPBM binding intensity (ln)” value did it give?
Answer: 9.96 ± 0.23

Question: “TCTTCAAACAAAAAAAATAATAAAAAGTACAAAATG [CACACA_negctrl_site363]” was tested. Which “gcPBM binding intensity (ln)” value did it give?
Answer: 8.88 ± 0.4

Question: With “TTATGTCATAAATGCACACATATATAAATACAGATA [CACACA_site4959]” as the sequence, how does the “gcPBM binding intensity (ln)” value read?
Answer: 8.53 ± 0.28

Question: “ATATGTGATTTCTAATGTACACAAAAAAAAAAAAAA [XGTACX_site7701]” was tested. Which “gcPBM binding intensity (ln)” value did it give?
Answer: 8.4 ± 0.39

Question: “TTTTTGTTTTTGTTTTGTACTCATACATACTATCAT [XGTACX_site4210]” was tested. Which “gcPBM binding intensity (ln)” value did it give?
Answer: 8.99 ± 0.44

Question: For “GGGGTATCTTCCTATGCACACTTGTTATGTACTAAC [CACACA_site4610]”, which “gcPBM binding intensity (ln)” value is on record?
Answer: 9.53 ± 0.42

Question: How did the “gcPBM binding intensity (ln)” value turn out when “ATATATACGTATGAATGTATATTTGTTTGATTTTTT [CACACA_negctrl_site835]” was run?
Answer: 8.39 ± 0.4

Question: “CTTTTATTAAAATTCACACACATAAATTTTTATAAA [CACACA_site1993]” was tested. Which “gcPBM binding intensity (ln)” value did it give?
Answer: 8.29 ± 0.37

Question: How did the “gcPBM binding intensity (ln)” value turn out when ATTTTCATGATAAAGGTGCAATTATTTTTATAAGAA was run?
Answer: 8.74 ± 0.13

Question: With “TATATATATATATATGGTACAGTTTATGCCTTTTAA [XGTACX_site6695]” as the sequence, how does the “gcPBM binding intensity (ln)” value read?
Answer: 10.1 ± 0.39

Question: How did the “gcPBM binding intensity (ln)” value turn out when “TATAATATATACAAATGTACATATATATATATATAT [XGTACX_site4559]” was run?
Answer: 10.2 ± 0.42

Question: Which “gcPBM binding intensity (ln)” value does the source give for “TTATTTATAATATATACACACTAACATTATTTATCC [CACACA_site4835]” here?
Answer: 8.41 ± 0.44

Question: With “AAAAAAACATGAAACACACACAAATATATATATATA [CACACA_site1884]” as the sequence, how does the “gcPBM binding intensity (ln)” value read?
Answer: 10 ± 0.21

Question: Which “gcPBM binding intensity (ln)” value does the source give for “TTCGTATATTATTAATGTACATTATAAAATCAATAT [XGTACX_site5751]” here?
Answer: 8.63 ± 0.27

Question: Which “gcPBM binding intensity (ln)” value does the source give for “AACAATATTATTGTTTGTACTCACATATATAATATA [XGTACX_site8063]” here?
Answer: 8.36 ± 0.36

Question: Which “gcPBM binding intensity (ln)” value does the source give for “ATATATATGTGAAAATCACACATTGCTTATCTGTAA [CACACA_site6044]” here?
Answer: 8.35 ± 0.42

Question: How did the “gcPBM binding intensity (ln)” value turn out when “TGTTTTATTATTTATAGTACATAAAAAAATATTGTA [XGTACX_site8963]” was run?
Answer: 8.25 ± 0.24

Question: Which “gcPBM binding intensity (ln)” value does the source give for “AAGGCATACAATACCTGTACGCAACCTTAAAAAGAA [XGTACX_site6070]” here?
Answer: 8.59 ± 0.36

Question: Which “gcPBM binding intensity (ln)” value does the source give for “AAAAAAAAAAAAAAAAAAAAAAAAAAAATTCTATAT [GTGCAC_negctrl_site468]” here?
Answer: 9.28

Question: For “CACACGCACAAAAACACACACAAAGGTGTTCTTATA [CACACA_site6724]”, which “gcPBM binding intensity (ln)” value is on record?
Answer: 8.45 ± 0.45

Question: For “AGATATTTCATTTAAAGTACATTCTTTATCACATAA [XGTACX_site6731]”, which “gcPBM binding intensity (ln)” value is on record?
Answer: 8.33 ± 0.38

Question: “TTATTTTTTTTTTTTCGTACTTATTTATCTTGGTAT [XGTACX_site78]” was tested. Which “gcPBM binding intensity (ln)” value did it give?
Answer: 8.55 ± 0.51

Question: With “AAAATCTATAATATAACACACATATATTCTATATGG [CACACA_site7821]” as the sequence, how does the “gcPBM binding intensity (ln)” value read?
Answer: 8.06 ± 0.4

Question: How did the “gcPBM binding intensity (ln)” value turn out when “TTCCTGTTAATTACAACACACAATTCTTATTTTATG [CACACA_site6507]” was run?
Answer: 8.81 ± 0.42

Question: Which “gcPBM binding intensity (ln)” value does the source give for “CATACATACAGACACACACACATATAAATACATACA [CACACA_site6533]” here?
Answer: 8.73 ± 0.44

Question: With “ATTTTCAAATTCTATGCATGTGTATATTATAGATAA [TGCATGCA_site1003]” as the sequence, how does the “gcPBM binding intensity (ln)” value read?
Answer: 8.77 ± 0.45

Question: Which “gcPBM binding intensity (ln)” value does the source give for “TTAACAAAACTTTTAACACACAAAAAAAAAAAAAAA [CACACA_site6947]” here?
Answer: 8.19 ± 0.44

Question: With “CTATAATAATAAAGTGAACACACACCGATAATATAT [CACACA_site9377]” as the sequence, how does the “gcPBM binding intensity (ln)” value read?
Answer: 8.72 ± 0.57
